Publication PMC3701669
These are yes or no findings as the source states them, for the method shown. Binding seen in cells or lysates may run through a third protein. Some results given as binding are weak or reduced against the parent protein; the word gives no strength. Tags and fused reporters may be left off the sequences shown.

By UniProt entry, the sequences of proteins in these tests, tags left out. Where a name states a change or a piece, a line headed by the entry shows the natural chain unless it says otherwise. Chains listed by the source or under a name are the forms on record and can include a tag or linker. Residues count along the entry.
UniProt P39687: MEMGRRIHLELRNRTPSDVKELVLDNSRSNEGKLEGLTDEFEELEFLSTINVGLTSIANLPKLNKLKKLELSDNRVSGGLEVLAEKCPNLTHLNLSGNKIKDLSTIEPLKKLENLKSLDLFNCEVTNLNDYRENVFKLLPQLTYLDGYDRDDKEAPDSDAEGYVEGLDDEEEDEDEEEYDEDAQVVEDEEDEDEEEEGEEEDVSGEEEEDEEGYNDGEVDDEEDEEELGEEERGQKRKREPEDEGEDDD
TAF-1β N-terminal deletion, amino acids 133–277 (Q9EQU5, residues 145-289): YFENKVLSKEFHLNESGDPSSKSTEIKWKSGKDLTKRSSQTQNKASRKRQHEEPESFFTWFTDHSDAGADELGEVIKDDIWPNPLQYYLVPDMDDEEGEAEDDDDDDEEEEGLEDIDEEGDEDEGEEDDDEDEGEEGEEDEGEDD
template-activating factor-1β (TAF-1β), endogenous mouse (Q9EQU5-2, form named): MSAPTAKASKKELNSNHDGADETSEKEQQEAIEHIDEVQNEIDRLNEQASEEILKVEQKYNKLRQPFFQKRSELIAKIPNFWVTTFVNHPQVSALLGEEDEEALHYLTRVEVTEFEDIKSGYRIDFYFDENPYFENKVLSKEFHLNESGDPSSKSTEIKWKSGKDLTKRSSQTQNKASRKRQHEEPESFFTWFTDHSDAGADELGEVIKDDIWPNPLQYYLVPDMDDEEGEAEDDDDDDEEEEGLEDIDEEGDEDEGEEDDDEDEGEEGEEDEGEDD
TAF-1β 1–225 (C-terminal deletion eliminating the acidic domain) (Q9EQU5-2, form named): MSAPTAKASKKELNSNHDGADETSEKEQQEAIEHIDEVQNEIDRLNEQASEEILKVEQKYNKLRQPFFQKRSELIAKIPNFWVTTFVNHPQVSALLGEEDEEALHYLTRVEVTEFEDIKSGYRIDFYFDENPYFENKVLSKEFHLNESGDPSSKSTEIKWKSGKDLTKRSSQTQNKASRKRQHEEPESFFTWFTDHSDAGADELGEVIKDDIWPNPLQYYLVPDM
UniProt O35381: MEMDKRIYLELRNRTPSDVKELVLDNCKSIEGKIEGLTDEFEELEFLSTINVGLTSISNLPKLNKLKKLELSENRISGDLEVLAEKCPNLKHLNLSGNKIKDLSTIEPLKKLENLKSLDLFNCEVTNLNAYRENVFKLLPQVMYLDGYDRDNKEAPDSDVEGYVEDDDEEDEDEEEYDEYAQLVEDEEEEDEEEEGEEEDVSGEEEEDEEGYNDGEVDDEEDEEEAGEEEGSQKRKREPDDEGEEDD

Assays:
[1] = biological target: T1, GST-LHX3a (full-length LHX3 protein) (human) (UniProt Q9UBR4); test: pull-down; GST-LHX3 fusion on glutathione-agarose resin; 200,000 cpm of 35S-labeled in vitro translated protein (rabbit reticulocyte lysate or wheat germ extract); 20 mM HEPES pH 7.9, 300 mM NaCl, 1 mM EDTA, 4 mM MgCl2, 0.02% NP-40, 10% glycerol, 1 mM ZnCl2, 1 mM DTT, 20 µg/ml ethidium bromide; 1 hour at 4°C; SDS-PAGE, autoradiography; GST alone as control; only the target purified
T1 sequence: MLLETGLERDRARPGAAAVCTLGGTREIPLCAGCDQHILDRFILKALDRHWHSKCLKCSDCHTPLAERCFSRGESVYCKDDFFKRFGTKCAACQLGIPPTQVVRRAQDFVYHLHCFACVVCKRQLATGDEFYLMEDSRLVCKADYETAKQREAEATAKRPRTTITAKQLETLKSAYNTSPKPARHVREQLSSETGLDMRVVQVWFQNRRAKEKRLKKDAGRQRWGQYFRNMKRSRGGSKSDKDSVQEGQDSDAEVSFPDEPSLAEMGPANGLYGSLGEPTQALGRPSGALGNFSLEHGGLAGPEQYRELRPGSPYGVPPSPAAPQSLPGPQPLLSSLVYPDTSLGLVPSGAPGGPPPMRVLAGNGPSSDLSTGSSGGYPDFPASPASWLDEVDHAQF

[2] = biological target: T2, GST-human LHX3a C-terminus (residues 225–397) fusion protein (human) (UniProt Q9UBR4); test: as above
T2 sequence: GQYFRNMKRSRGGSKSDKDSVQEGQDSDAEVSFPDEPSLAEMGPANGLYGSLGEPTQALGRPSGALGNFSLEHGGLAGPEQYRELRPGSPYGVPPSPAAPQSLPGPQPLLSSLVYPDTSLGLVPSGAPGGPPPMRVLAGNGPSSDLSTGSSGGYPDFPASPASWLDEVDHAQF

[3] = biological target: T2, GST-human LHX3a C-terminus (residues 225–397) fusion protein (human); test: pull-down; interaction screen repeated: GST-LHX3 C-terminus resin with precleared mouse pituitary cell or gland extracts; recovered proteins analysed by western blotting with antibodies to LANP and TAF-1β; GST alone as control; only the target purified

binding [1]	binding [2]	binding [3]	Substance
binds	binds	–	Full-length LANP (amino acids 1–249), radiolabeled (from UniProt P39687 1-249)
binds	binds	–	Full-length TAF-1β, radiolabeled (from UniProt Q9EQU5-2 1-277)
no binding	–	–	LANP deletion construct, amino acids 1–167 (from UniProt P39687 1-167) (domain or fragment)
no binding	–	–	TAF-1β 1–225 (C-terminal deletion eliminating the acidic domain) (from UniProt Q9EQU5-2 1-225) (domain or fragment)
binds	–	–	TAF-1β N-terminal deletion, amino acids 133–277 (from UniProt Q9EQU5-2 133-277) (domain or fragment)
–	–	binds	leucine rich acidic nuclear protein (LANP), endogenous mouse (from UniProt O35381 1-247)
–	–	binds	template-activating factor-1β (TAF-1β), endogenous mouse (from UniProt Q9EQU5-2 1-277)
